# Reference: PubChem BioAssay AID1508623 (National Center for Advancing Translational Sciences (NCATS), 2021)
# Among all 48,000 compounds or so, about 450 (0.94%) were called active. Roughly 19% stayed inconclusive and do not appear here. The call rests on the fitted dose curve; in most records, active means well fitted inhibition curve with a large enough effect; inconclusive means small, poorly fitted or top-dose-only effect; inactive means no such curve, though single readings can be large or run the other way. The list shows a part of the results.
# Assay: Primary qHTS for Identification of Small Molecule Inhibitors of Huntingtin Promoter Activity; further: nearly all actives have a fitted effect of over 50% in size
# Settings: HEK293 HTT promoter firefly luciferase reporter (activity 0% = vehicle and -100% = no light), 24 h; series mostly up to 57.5 µM; activity change, negative = inhibition: at the top concentration
# Summary of the method: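 Firefly luciferase readout (Dual-Glo, 10 min RT) after 24 h, 37 °C compound exposure (final up to 57.5 uM) of HEK293 reporter cells cultured 24 h beforehand; PTC124 at 50 uM final as control inhibitor; activity scaled vehicle 0%, zero RLU -100%.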
row,SMILES,"activity change, negative = inhibition"
1,COc1ccccc1CCNc1ncnc2c1nnn2C,inactive: -12.1%
2,COc1ccc(C)cc1NC(=O)c1ccc2c(Cl)c3c(nc2c1)CCC3,inactive: 6.03%
3,Cn1nc(C(=O)N2CCN(c3ccccc3)CC2)c2c1-c1ccccc1S(=O)(=O)C2,inactive: -7.78%
4,COc1ccc(S(=O)(=O)c2c(SC)nn(Cc3ccccc3C)c2NC(C)=O)cc1,inactive: -27.6%
5,O=C(Nc1ccc(O)cc1)c1cccc(S(=O)(=O)N2CCOCC2)c1,inactive: -0.561%
6,O=C(CSc1nc2c([nH]c3ccccc32)c(=O)n1-c1ccccc1)N1CCCC1,inactive: -6.07%
7,Cc1ccc(OCC(=O)Nc2ccc3nn(-c4ccc(Cl)cc4)nc3c2)cc1,inactive: 40.8%
8,O=c1c2oc3ccccc3c2n(Cc2ccccc2)c(=O)n1Cc1ccc2c(c1)OCO2,inactive: -2.89%
9,COc1cc(C2CC(=O)Nc3c2c(=O)[nH]c2ncnn32)ccc1O (configuration not stated),inactive: -5.55%
10,CCOC(=O)C1CCCN(C(=O)c2ccc3c(c2)N(Cc2ccccc2)C(=O)c2ccccc2S3=O)C1 (configuration not stated),inactive: -13.1%
11,COc1ccc2oc(=O)cc(CN3CCN(c4ccccc4F)CC3)c2c1,inactive: -0.388%
12,CCCCc1nn2c(=O)cc(COC(=O)c3ccccc3NC(=O)c3ccccc3OC)nc2s1,inactive: -21.6%
13,COc1cccc(NS(=O)(=O)c2ccc3[nH]cc(C(=O)N(C)C4CCCCC4)c(=O)c3c2)c1,inactive: 3.44%
14,CCCC(=O)N1c2nc(C(C)C)nn2C2(CCCCC2)[C@@H]2CCCC[C@@H]21,inactive: -6.44%
15,COc1cc2c(cc1OC)n(CC(=O)c1ccc(F)cc1)c(=O)n1nc(CCn3nc(C)cc3C)nc21,inactive: 16.3%
16,COc1cccc(CNC(=O)c2ccc(NC(=O)N3CCCCc4ccccc43)cc2)c1,inactive: -8.29%
17,O=C(Nc1cccc(Cl)c1)c1csnn1,inactive: 3.44%
18,Cc1ccc(-c2nc(SCC(=O)NCC3CCCO3)c(-c3ccc(C)cc3)[nH]2)cc1 (configuration not stated),inactive: -7.58%
19,NC(=O)c1cc(S(=O)(=O)NCC2CCC(C(=O)Nc3ccc(Cl)cc3)CC2)cs1 (configuration not stated),inactive: -34.5%
20,COC(=O)c1c(NC(=O)c2cc(=O)c3c(C)cc(C)cc3o2)sc2c1CCCC2,inactive: 10.3%
21,Cc1ccc(-n2ncc3c(N4CCN(c5ccccc5)CC4)ncnc32)cc1C,inactive: -8.85%
22,COCCn1c(C)cc(O)c(C(c2ccccc2)N2CCC(C)CC2)c1=O (configuration not stated),inactive: -12.4%
23,OC[C@@H](O)[C@@H](O[C@@H]1O[C@H](CO)[C@H](O)[C@H](O)[C@H]1O)[C@H](O)[C@@H](O)CO,inactive: 6.34%
24,CCc1ccccc1Nc1cc(C(=O)NCc2ccc(C)cc2)c2ccccc2n1,inactive: -8.39%

row,SMILES,"activity change, negative = inhibition"
1,COc1ccc(N2C(=O)CSC23C(=O)N(C)c2ccccc23)cc1Cl (configuration not stated),inactive: -25.3%
2,CCOC(=O)N1CCN(C(=O)c2ccc3c(c2)N(Cc2ccccc2F)C(=O)c2ccccc2S3=O)CC1 (configuration not stated),inactive: -15.8%
3,O=C(c1c2c(nc3ccccc13)C(=O)N(C1CCCCC1)C2)N1CCN(c2ccc(F)cc2)CC1,inactive: -20.1%
4,CCOC(=O)c1c(S(=O)(=O)N2CCCC(C(=O)Nc3ccc(OCC)cc3)C2)c(C)n(C)c1C (configuration not stated),inactive: -11.3%
5,Cc1ccc(S(=O)(=O)c2cn(Cc3cccc(F)c3)c3cc(N4CCCC4)c(F)cc3c2=O)cc1,inactive: -4.93%
6,COc1ccc(C)cc1Nc1nc2c(S(=O)(=O)c3cccc(Cl)c3)nnn2c2ccsc12,inactive: -17.1%
7,CCCOc1ccccc1-c1nc(SCC(=O)c2ccccc2)n[nH]1,inactive: -33.5%
8,CCN1CCN(CCCNC(=O)c2ccc3nc(Cc4ccc(OC)cc4)oc3c2)CC1,inactive: -9.88%
9,Cc1cc(C)n(C(C)CC(=O)NCc2ccccc2C)n1 (configuration not stated),inactive: 8.44%
10,COc1ccc(Br)cc1C(=O)Nc1ccc2oc(-c3cccnc3)nc2c1,inactive: 5.48%
11,CC(=O)Nc1ccc(S(=O)(=O)N2CCC(c3ccncc3)CC2)cc1,inactive: -12.6%
12,CCCCN(CCCC)c1ncnc2c1cnn2-c1cccc(C)c1,inactive: -21.6%
13,Cc1ccccc1C(=O)c1cccn1CC(=O)NCc1ccc(Cl)cc1,inactive: 2.72%
14,COc1ccccc1CNC(=O)Cc1c(C)c2c(cc(C)c3c(C)c(C)oc32)oc1=O,inactive: -1.56%
15,Cc1ccc2c(CN3CCN(Cc4ccccc4Cl)CC3)cc(=O)oc2c1,inactive: -6.92%
16,COc1ccc(CCNC(=O)CCCn2c(=O)c3cccn3c3cccnc32)cc1OC,inactive: 7.59%
17,COc1ccc(C2CC(=O)Nc3c2c(=O)nc2c(C)cccn32)cc1OC (configuration not stated),inactive: -9.62%
18,CCN(CC)c1nn2c(=O)c(C(=O)NCCc3ccc(C)cc3)cnc2s1,inactive: -2.57%
19,COc1ccc(NC(=O)c2ccc(CN3C(=O)CCn4nc(C)cc43)cc2)c(OC)c1,inactive: 10.1%
20,CCn1c2ccccc2c2nnc(N3CCN(c4ccc(F)cc4)CC3)nc21,inactive: 4.86%
21,CCOC(=O)c1c(NC(=O)COc2cccc(C(F)(F)F)c2)sc2c1CCC(C)C2 (configuration not stated),inactive: -20.7% [at 11.5 µM]
22,CCOC(=O)c1cc2c(=O)n3ccccc3nc2n(CC2CCCO2)c1=NC(=O)c1ccc(C(C)(C)C)cc1 (configuration not stated),inactive: -8.51%
23,Cc1nc2sc(C(=O)N(C)Cc3ccccc3)c(NC(=O)c3ccccc3)c2c(C)c1Cl,inactive: 4.12%
